The list shows a part of the results, in another mix than the full data. The list includes weakly bound sequences.

Data on ten sequences can be found in publication PMC5700166.

Holding throughout (assay): protein-binding microarray (PBM)
Holding throughout (settings): PBM: ~300 nM protein, 6 mM HEPES pH 7.8, 80 mM KCl, 0.5 mM EDTA, 0.5 mM EGTA, 6% glycerol, 35 ng/ul poly-dIdC, 1% milk, 1 h, room temperature; Ap Aiptasia and Nv Nematostella (sea anemones) / Co Capsaspora / Aq Amphimedon (sponge) / Dm Drosophila / Hu human; RHD is the Rel homology domain; high values mean tight binding; most listed sequences are background and not binding sites; double strand, one strand shown

One experiment concerns the target T1, GST-Ap-NF-kB RHD (UniProt A0A913YAJ5).
T1 sequence: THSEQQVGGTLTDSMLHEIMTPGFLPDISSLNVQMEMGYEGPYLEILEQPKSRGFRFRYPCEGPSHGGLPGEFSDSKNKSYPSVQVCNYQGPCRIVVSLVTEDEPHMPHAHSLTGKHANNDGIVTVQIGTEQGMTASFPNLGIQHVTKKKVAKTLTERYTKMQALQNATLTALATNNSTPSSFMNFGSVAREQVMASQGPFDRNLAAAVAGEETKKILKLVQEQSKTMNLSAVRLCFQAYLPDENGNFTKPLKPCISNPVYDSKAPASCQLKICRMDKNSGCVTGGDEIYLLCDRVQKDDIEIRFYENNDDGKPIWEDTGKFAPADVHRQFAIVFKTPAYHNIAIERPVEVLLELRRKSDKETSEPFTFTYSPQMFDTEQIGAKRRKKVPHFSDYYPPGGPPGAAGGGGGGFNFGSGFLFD

Experiment [1] has as its target T2, GST-Nv-NF-kB (Cys allele) (UniProt E5G601).
T2 sequence: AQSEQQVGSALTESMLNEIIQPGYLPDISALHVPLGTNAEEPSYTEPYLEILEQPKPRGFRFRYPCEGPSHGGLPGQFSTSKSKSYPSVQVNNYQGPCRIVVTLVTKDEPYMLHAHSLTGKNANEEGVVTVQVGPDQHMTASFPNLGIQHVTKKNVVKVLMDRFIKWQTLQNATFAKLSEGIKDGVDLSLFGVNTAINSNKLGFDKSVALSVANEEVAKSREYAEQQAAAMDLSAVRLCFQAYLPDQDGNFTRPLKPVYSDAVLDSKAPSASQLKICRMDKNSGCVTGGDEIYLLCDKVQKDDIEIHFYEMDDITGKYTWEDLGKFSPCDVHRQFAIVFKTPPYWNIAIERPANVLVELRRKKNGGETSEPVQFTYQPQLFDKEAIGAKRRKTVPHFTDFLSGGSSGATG

The target in the next experiment is T3, GST-Co-NF-kB (UniProt F1ARL5).
T3 sequence: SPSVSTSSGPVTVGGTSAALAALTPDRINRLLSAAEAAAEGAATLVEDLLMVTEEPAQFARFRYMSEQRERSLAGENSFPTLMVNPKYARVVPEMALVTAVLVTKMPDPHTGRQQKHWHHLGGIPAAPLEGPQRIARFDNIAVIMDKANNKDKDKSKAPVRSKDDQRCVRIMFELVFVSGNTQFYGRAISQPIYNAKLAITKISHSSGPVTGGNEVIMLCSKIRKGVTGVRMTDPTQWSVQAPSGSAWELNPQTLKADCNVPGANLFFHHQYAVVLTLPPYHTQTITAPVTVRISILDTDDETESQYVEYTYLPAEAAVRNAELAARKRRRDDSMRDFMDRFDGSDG

The target of the next experiment is T4, GST-Dm-Relish (UniProt Q94527).
T4 sequence: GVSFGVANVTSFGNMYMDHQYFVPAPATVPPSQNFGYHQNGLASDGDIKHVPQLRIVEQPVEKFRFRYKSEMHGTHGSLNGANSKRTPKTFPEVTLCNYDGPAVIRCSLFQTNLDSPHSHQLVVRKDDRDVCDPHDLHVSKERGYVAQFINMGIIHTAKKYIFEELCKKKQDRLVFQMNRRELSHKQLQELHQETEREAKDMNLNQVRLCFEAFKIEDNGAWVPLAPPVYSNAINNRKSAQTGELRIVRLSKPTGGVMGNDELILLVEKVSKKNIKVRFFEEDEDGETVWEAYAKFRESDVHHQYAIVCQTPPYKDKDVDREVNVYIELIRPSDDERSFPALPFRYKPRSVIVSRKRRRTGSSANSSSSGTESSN

For another experiment, the target named is T5, GST-Aq-NF-kB (UniProt A9Y5G7).
T5 sequence: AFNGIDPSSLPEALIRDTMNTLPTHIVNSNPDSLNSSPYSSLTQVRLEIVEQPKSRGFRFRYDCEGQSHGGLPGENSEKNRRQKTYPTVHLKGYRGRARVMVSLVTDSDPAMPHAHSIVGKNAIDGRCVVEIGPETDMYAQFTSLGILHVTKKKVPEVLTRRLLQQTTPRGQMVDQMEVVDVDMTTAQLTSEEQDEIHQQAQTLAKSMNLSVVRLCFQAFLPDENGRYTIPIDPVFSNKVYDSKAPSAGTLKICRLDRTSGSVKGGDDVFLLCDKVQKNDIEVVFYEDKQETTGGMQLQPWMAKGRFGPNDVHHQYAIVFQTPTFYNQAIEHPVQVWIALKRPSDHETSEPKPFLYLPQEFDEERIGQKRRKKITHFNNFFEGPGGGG

Regarding “CCGATTAACATCACGGAAACCAGTGATGTTAATCGGGTCTTGATTCGCTTGACGCTGCTG”, the binding signal was -0.574 z-score with GST-Ap-NF-kB RHD; 0.0824 z-score in experiment [1]; 0.356 z-score with GST-Co-NF-kB; 0.249 z-score in the experiment with GST-Dm-Relish; -0.397 z-score with GST-Aq-NF-kB.

With “CCGATTAACATCACAAGATTTCCTGATGTTAATCGGGTCTTGATTCGCTTGACGCTGCTG”, the binding signal with GST-Ap-NF-kB RHD was 0.104 z-score; in experiment [1], -0.0553 z-score; with GST-Co-NF-kB, 0.624 z-score; with GST-Dm-Relish, 0.745 z-score; in the experiment with GST-Aq-NF-kB it was 0.442 z-score.

Turning to “CCGATTAACATCACTGGCTTCACTGATGTTAATCGGGTCTTGATTCGCTTGACGCTGCTG”, the binding signal was -0.496 z-score in the experiment with GST-Ap-NF-kB RHD; -1.05 z-score in experiment [1]; -0.285 z-score with GST-Co-NF-kB; -0.235 z-score with GST-Dm-Relish; -0.892 z-score in the experiment with GST-Aq-NF-kB.

As to “CCGATTAACATCATTTGTGCGCCTGATGTTAATCGGGTCTTGATTCGCTTGACGCTGCTG”, the binding signal was -0.303 z-score in the experiment with GST-Ap-NF-kB RHD; 0.15 z-score in experiment [1]; -0.311 z-score with GST-Co-NF-kB; 0.109 z-score in the experiment with GST-Dm-Relish; -0.109 z-score in the experiment with GST-Aq-NF-kB.

Turning to “CCGATTAACATCATAATTGAGCATGATGTTAATCGGGTCTTGATTCGCTTGACGCTGCTG”, the binding signal with GST-Ap-NF-kB RHD is -0.201 z-score; in experiment [1] it was -0.261 z-score; in the experiment with GST-Co-NF-kB, 0.116 z-score; with GST-Dm-Relish it was -0.446 z-score; in the experiment with GST-Aq-NF-kB it was -0.249 z-score.

Take “CCGATTAACATCAGGATGCTTATTGATGTTAATCGGGTCTTGATTCGCTTGACGCTGCTG”: the binding signal with GST-Ap-NF-kB RHD is -0.586 z-score; in experiment [1], -0.214 z-score; with GST-Co-NF-kB it was 0.517 z-score; in the experiment with GST-Dm-Relish, -0.746 z-score; in the experiment with GST-Aq-NF-kB, -0.355 z-score.

Consider “CCGATTAACATCACGTACCTCTTTGATGTTAATCGGGTCTTGATTCGCTTGACGCTGCTG”, for which the binding signal was 0.00484 z-score with GST-Ap-NF-kB RHD; 0.15 z-score in experiment [1]; 0.323 z-score with GST-Co-NF-kB; 0.393 z-score in the experiment with GST-Dm-Relish; -0.181 z-score in the experiment with GST-Aq-NF-kB.

On to “CCGATTAACATCAAATCGTCCTTTGATGTTAATCGGGTCTTGATTCGCTTGACGCTGCTG”, for which the binding signal was -0.465 z-score with GST-Ap-NF-kB RHD; -0.349 z-score in experiment [1]; -0.771 z-score with GST-Co-NF-kB; -0.848 z-score with GST-Dm-Relish; -0.324 z-score in the experiment with GST-Aq-NF-kB.

On to “CCGATTAACATCATTCGACATGTTGATGTTAATCGGGTCTTGATTCGCTTGACGCTGCTG”, for which the binding signal with GST-Ap-NF-kB RHD is -0.512 z-score; in experiment [1], -0.384 z-score; with GST-Co-NF-kB, -0.438 z-score; with GST-Dm-Relish, -0.646 z-score; in the experiment with GST-Aq-NF-kB it was -0.634 z-score.

Regarding “CCGATTAACATCACCGAACTAACTGATGTTAATCGGGTCTTGATTCGCTTGACGCTGCTG”, the binding signal is 0.587 z-score with GST-Ap-NF-kB RHD; -0.0576 z-score in experiment [1]; 0.301 z-score with GST-Co-NF-kB; 0.62 z-score with GST-Dm-Relish; 0.329 z-score in the experiment with GST-Aq-NF-kB.
